Test results published in paper PMC8639510.
Results are given in words; binding and its absence hold for the method and conditions named. For part of these data: Binding seen in cells or lysates may run through a third protein. Some binding calls cover weakened binding; strength is not graded here. For part of these data: Sequences can lack the tags named with a protein.

Protein sequences, listed by entry. Tags and fused reporters are not part of them.
UniProt Q44445: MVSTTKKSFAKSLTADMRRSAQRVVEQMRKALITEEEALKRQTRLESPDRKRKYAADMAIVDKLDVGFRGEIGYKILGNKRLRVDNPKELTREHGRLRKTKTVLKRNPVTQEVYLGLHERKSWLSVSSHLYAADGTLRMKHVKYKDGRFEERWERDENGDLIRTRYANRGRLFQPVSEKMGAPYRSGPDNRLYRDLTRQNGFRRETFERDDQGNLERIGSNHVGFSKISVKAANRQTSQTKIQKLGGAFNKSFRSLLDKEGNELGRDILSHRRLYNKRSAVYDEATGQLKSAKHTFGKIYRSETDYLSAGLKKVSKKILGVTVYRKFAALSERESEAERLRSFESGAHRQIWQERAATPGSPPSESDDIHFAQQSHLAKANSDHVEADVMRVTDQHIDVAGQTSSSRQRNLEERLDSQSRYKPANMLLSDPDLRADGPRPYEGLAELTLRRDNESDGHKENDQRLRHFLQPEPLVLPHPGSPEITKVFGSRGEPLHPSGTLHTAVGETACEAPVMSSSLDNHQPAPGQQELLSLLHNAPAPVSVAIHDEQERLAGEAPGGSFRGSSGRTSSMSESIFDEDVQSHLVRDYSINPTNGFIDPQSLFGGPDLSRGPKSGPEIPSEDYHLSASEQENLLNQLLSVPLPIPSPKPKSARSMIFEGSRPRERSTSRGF

Assays:
[1] = molecular target: JAZ8-ZIM (aa 13-101) fused to the binding domain (JAZ8-ZIM-pAS2.1) (Arabidopsis thaliana) (UniProt Q8LBM2); experiment: two-hybrid; JAZ8 and its fragments in pAS2.1 (BD), VirE3 in pACT2 (AD), cotransformed into yeast strain PJ69-4A; growth on SD-LWH plates, 4 days at 28°C; repeated three times
[2] = molecular target: T1, full-length JAZ8 fused to the binding domain (JAZ8-pAS2.1) (Arabidopsis thaliana) (UniProt Q8LBM2); experiment: as above
T1 sequence: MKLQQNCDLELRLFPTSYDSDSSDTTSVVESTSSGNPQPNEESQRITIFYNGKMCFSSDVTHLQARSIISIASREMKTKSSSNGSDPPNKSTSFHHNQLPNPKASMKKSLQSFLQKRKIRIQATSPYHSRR

[3] = molecular target: JAZ8CT (aa 101-127) fused to the binding domain (JAZ8CT-pAS2.1) (Arabidopsis thaliana) (UniProt Q8LBM2); experiment: as above
[4] = molecular target: JAZ8NT (aa 1-101) fused to the binding domain (JAZ8NT-pAS2.1) (Arabidopsis thaliana) (UniProt Q8LBM2); experiment: as above
[5] = molecular target: T2, JAZ8-cYFP (Arabidopsis thaliana) (UniProt Q8LBM2); experiment: split reporter; BiFC with split YFP; constructs under the 35S promoter transiently cotransformed into Arabidopsis leaf protoplasts; confocal microscopy, excitation 514 nm, emission 530-600 nm
T2 sequence: T1 sequence

[6] = molecular target: T3, maltose binding protein (MBP)-fused JAZ8 (Arabidopsis thaliana) (UniProt Q8LBM2); experiment: pull-down; MBP pull-down: MBP-JAZ8 resin (or MBP resin) incubated with GST-VirE3, SDS-PAGE, immunoblot with anti-GST and anti-MBP antibody; both purified
T3 sequence: T1 sequence

For “full-length VirE3 fused to the activation domain (pACT2-VirE3) (from UniProt Q44445 1-672)”, the binding [1] was “binds”, the binding [2] was “binds” and the binding [3] was “no binding”. For the same substance, the binding [4] was “binds”.

In the case of VirE3-nYFP (from UniProt Q44445 1-672), the binding [5] is reported as “binds”.

For “GST-tagged VirE3 (from UniProt Q44445 1-672)”, the binding [6] was “binds”.
